Measured values as given in ChEMBL document CHEMBL4888484, “Replenishing the malaria drug discovery pipeline: Screening and hit evaluation of the MMV Hit Generation Library 1 (HGL1) against asexual blood stage Plasmodium falciparum ,using a nano luciferase reporter read-out” (2022).
Hit rate of the full screen: of about 150,000 compounds, about 540 (0.36%) showed an effect of 50% or more. The list shows a part of the results.

Test system: Plasmodium falciparum
Assay: Primary screen in NF54 nanoGlo assay, in single point, at 2uM, 72h; a lower Z score goes with more inhibition
Assay type: functional, Erythrocyte
Settings: timepoint 72 hour

First: CO[C@@]12CC[C@@H](O)C[C@@H]1N(C(=O)c1ccc(Cn3nnnc3C)cc1)CC2
Second: CCc1cnc(C)nc1N1CCC(NCCCc2ccc(F)cc2)CC1
The “% Inhibition” value of the first is higher: 5% for the first, -9% for the second.

First: CCc1noc(CNC(=O)c2ccc(Cl)cn2)n1
Second: CCN1CCn2cc(C(=O)NCc3cccc(Br)c3)nc2C1
The “% Inhibition” value of the first is higher: 3% for the first, 2% for the second.

Compared with `O=S(=O)(N1CCCCCC1)N1CCN(Cc2nncs2)CC1`, `CCCn1nnnc1CN1CCC[C@H]1c1nc(C2CCCCC2)co1` is lower in “% Inhibition” value: -7% for the first, -12% for the second.

Going from `COc1cccc(C(=O)Nc2ccc3c(c2)N(C)S(=O)(=O)N3C)c1` to `Cc1ccc(NC(=O)c2nc(-c3cn(-c4cccc(Cl)c4)nn3)no2)cc1`, the “% Inhibition” value rises from -10% to -1%.

First: Brc1cncc(CNc2nnc(CC3CCCCC3)o2)c1
Second: Cc1nc2ccc(NC(=O)CC3CC4CCC3C4)cc2s1 (stereo unspecified)
The “% Inhibition” value of the first is lower: -10% for the first, 2% for the second.

First: Cc1nc(N2[C@@H]3CC[C@H]2CNC(=O)C3)c2c(C)nn(C)c2n1
Second: Cc1nc2ccc(N3CCC[C@H](c4nc(-c5ccc(F)cc5)no4)C3)nn2n1
The “% Inhibition” value of the first is higher: -2% for the first, -4% for the second.

First: O=C(Cn1cccnc1=O)N1CCC[C@H](c2[nH]ncc2-c2ccc(F)cc2)C1
Second: O=C(c1cc(-c2ccc(F)cc2)n[nH]1)N1CC(c2nc(-c3ccccc3)no2)C1
The “% Inhibition” value of the first is lower: -11% for the first, -2% for the second.

Going from `Cc1ncsc1[C@H]1Nc2ccc(Cl)cc2C(=O)N1CC1CC1` to `Cc1ccc(CN2C(=O)C3CCCCC3C2=O)cc1S(=O)(=O)Nc1ccc(F)c(F)c1` (stereo unspecified), the “% Inhibition” value rises from -8% to 6%.

First: Cc1cc(Cl)ccc1N1C(=O)CN(S(=O)(=O)c2ccccc2)C[C@@]1(C)C(=O)NCCC(C)C
Second: O=C(O)c1ccccc1CN1CCC[C@H](NS(=O)(=O)c2cccc(F)c2)C1
The “% Inhibition” value of the first is lower: -8% for the first, 0% for the second.

Going from `CC(=O)NC(C)C(=O)N1CC(C)C(NC(=O)OC(C)(C)C)C1` (stereo unspecified) to `CC(=O)N1C[C@H](O)C[C@@H]1C(=O)N1CCn2nc(C(C)(C)C)cc2C1`, the “% Inhibition” value falls from 24% to 8%.

Compared with `COc1cccc(OCCc2cc(C#N)ccn2)c1`, `O=C(CCc1cnccn1)NCc1cccnc1-n1cnc2ccccc21` is higher in “% Inhibition” value: -4% for the first, 4% for the second.

Going from `CC(C)C(=O)N1C[C@@H]2CN(C(=O)c3nccc4ccccc34)C[C@]2(CO)C1` to `CCc1ccccc1NC(=O)N1CCC(c2cc(=O)n3nccc3n2C)CC1`, the “% Inhibition” value falls from 13% to -7%.

First: Cc1noc(C)c1C(=O)N(C)Cc1ccncc1
Second: CCS(=O)(=O)Nc1cc(C(=O)NCCc2ccncc2)c2c(c1)nc(-c1ccccc1)n2C
The “% Inhibition” value of the first is lower: -15% for the first, 0% for the second.

Compared with `CN(C)C(=O)N[C@H]1CCCN(C(=O)c2ccc3c(c2O)CCCC3)C1`, `CCC(=O)Nc1cc(NC(=O)N2CCCO[C@@H](C)C2)ccc1OC` is lower in “% Inhibition” value: 5% for the first, -2% for the second.

Compared with `COc1ccc(C)cc1NC(=O)Cn1nc(Nc2ccc(F)cc2)c(S(=O)(=O)c2ccccc2)c1N`, `COc1ccc(-c2nn(-c3ccccc3C)cc2CN(C)Cc2cccnc2)cc1F` is higher in “% Inhibition” value: -19% for the first, 4% for the second.

Compared with `C[C@]1(O)CCN(Cc2ccccc2OC(F)(F)F)C[C@@H]1O`, `CCOC(=O)c1cccnc1N1CC[S@+]([O-])C(C)(C)C1` is lower in “% Inhibition” value: 3% for the first, -4% for the second.

First: CCOc1cccc(-c2noc(Cn3c(=O)n(Cc4ccccc4)c(=O)c4sccc43)n2)c1
Second: O=C1CC[C@@H](CN(Cc2cccnc2)Cc2ccnn2-c2ccccc2)N1
The “% Inhibition” value of the first is lower: -14% for the first, 4% for the second.

Going from `Cc1ccc(C(=O)NCc2ccc(N3CCO[C@@H](C)C3)nc2)c(=O)[nH]1` to `O=C(NCc1ccc(N2CCOCC2)cc1)c1nnn2c1c(=O)[nH]c1ccccc12`, the “% Inhibition” value rises from -22% to -7%.

Compared with `CCN(CCC#N)C(=O)CCc1cc(F)ccc1Br`, `CC(C)[C@@H](CO)NS(=O)(=O)c1cc(Br)ccc1F` is higher in “% Inhibition” value: -4% for the first, 6% for the second.

Compared with `O=C(CC1CCOCC1)NCc1ccc(F)cc1`, `CN(CC1CCOC1)C(=O)NC(c1ccccc1F)C1CCCC1` (stereo unspecified) is lower in “% Inhibition” value: 3% for the first, -12% for the second.

Going from `Cc1cccc(NC(=O)[C@H]2CC(=O)N(C(C)C)C2)n1` to `CCCCNC(=O)C1CCN(c2nc3ccccc3[nH]2)CC1`, the “% Inhibition” value rises from -2% to -1%.

First: CC(C)Cc1nc(C(=O)Nc2cccc(F)c2)n(-c2ccccn2)n1
Second: CC(C)[C@@H]1CN(CCCn2cccn2)CCCN1Cc1ccc(F)cc1
The “% Inhibition” value of the first is lower: -4% for the first, 1% for the second.

First: CCc1ccc2nc(-c3cn(CC)c(=O)[nH]c3=O)[nH]c(=O)c2c1
Second: O=C1C[C@H](c2ccc(F)c(F)c2F)c2cnn(Cc3cccs3)c2N1
The “% Inhibition” value of the first is higher: 25% for the first, 8% for the second.

Compared with `COc1ccccc1-c1n[nH]c(C2CC2)c1NC(=O)C1CCCC1`, `COc1cccc(N2CCN(C3=NC(=O)[C@@H](C#N)C4(CCCCC4)N3)CC2)c1` is lower in “% Inhibition” value: 1% for the first, -2% for the second.

First: CCC(C)C(C)(O)CNC(=O)Cc1ccc(Cl)s1 (stereo unspecified)
Second: CCOC(=O)N1CCN(c2cc([C@H]3CCOC3)nc(COC)n2)CC1
The “% Inhibition” value of the first is lower: -13% for the first, 4% for the second.

First: CC(C)c1nnc(N2CCC[C@H](C(F)(F)F)C2)s1
Second: COc1ccc(N(Cc2ccco2)Cc2nnc(C3CC3)o2)cc1F
The “% Inhibition” value of the first is higher: 6% for the first, -3% for the second.

`c1cc2cc(-c3nc(CCCN4CCCC4)no3)ccc2[nH]1` was tested, and the “% Inhibition” value was 0%.

First: CO[C@@]12CC[C@@H](O)C[C@@H]1N(C(=O)c1ccc(Cn3nnnc3C)cc1)CC2
Second: CCc1cnc(C)nc1N1CCC(NCCCc2ccc(F)cc2)CC1
The Z score of the first is lower: -1.05 for the first, 1.12 for the second.

Going from `CCc1noc(CNC(=O)c2ccc(Cl)cn2)n1` to `CCN1CCn2cc(C(=O)NCc3cccc(Br)c3)nc2C1`, the Z score falls from -0.3 to -0.31.

Going from `O=S(=O)(N1CCCCCC1)N1CCN(Cc2nncs2)CC1` to `CCCn1nnnc1CN1CCC[C@H]1c1nc(C2CCCCC2)co1`, the Z score rises from 1.19 to 2.18.

Compared with `COc1cccc(C(=O)Nc2ccc3c(c2)N(C)S(=O)(=O)N3C)c1`, `Cc1ccc(NC(=O)c2nc(-c3cn(-c4cccc(Cl)c4)nn3)no2)cc1` is lower in Z score: 1.27 for the first, 0.17 for the second.

Going from `Brc1cncc(CNc2nnc(CC3CCCCC3)o2)c1` to `Cc1nc2ccc(NC(=O)CC3CC4CCC3C4)cc2s1` (stereo unspecified), the Z score falls from 1.9 to -0.43.

Compared with `Cc1nc(N2[C@@H]3CC[C@H]2CNC(=O)C3)c2c(C)nn(C)c2n1`, `Cc1nc2ccc(N3CCC[C@H](c4nc(-c5ccc(F)cc5)no4)C3)nn2n1` is higher in Z score: 0.25 for the first, 0.58 for the second.

First: O=C(Cn1cccnc1=O)N1CCC[C@H](c2[nH]ncc2-c2ccc(F)cc2)C1
Second: O=C(c1cc(-c2ccc(F)cc2)n[nH]1)N1CC(c2nc(-c3ccccc3)no2)C1
The Z score of the first is higher: 1.45 for the first, 0.28 for the second.

Compared with `Cc1ncsc1[C@H]1Nc2ccc(Cl)cc2C(=O)N1CC1CC1`, `Cc1ccc(CN2C(=O)C3CCCCC3C2=O)cc1S(=O)(=O)Nc1ccc(F)c(F)c1` (stereo unspecified) is lower in Z score: 0.94 for the first, -0.75 for the second.

Compared with `Cc1cc(Cl)ccc1N1C(=O)CN(S(=O)(=O)c2ccccc2)C[C@@]1(C)C(=O)NCCC(C)C`, `O=C(O)c1ccccc1CN1CCC[C@H](NS(=O)(=O)c2cccc(F)c2)C1` is lower in Z score: 1.06 for the first, 0.03 for the second.

Going from `CC(=O)NC(C)C(=O)N1CC(C)C(NC(=O)OC(C)(C)C)C1` (stereo unspecified) to `CC(=O)N1C[C@H](O)C[C@@H]1C(=O)N1CCn2nc(C(C)(C)C)cc2C1`, the Z score rises from -2.69 to -1.21.

Going from `COc1cccc(OCCc2cc(C#N)ccn2)c1` to `O=C(CCc1cnccn1)NCc1cccnc1-n1cnc2ccccc21`, the Z score falls from 0.79 to -0.86.

Going from `CC(C)C(=O)N1C[C@@H]2CN(C(=O)c3nccc4ccccc34)C[C@]2(CO)C1` to `CCc1ccccc1NC(=O)N1CCC(c2cc(=O)n3nccc3n2C)CC1`, the Z score rises from -1.72 to 1.07.

Compared with `Cc1noc(C)c1C(=O)N(C)Cc1ccncc1`, `CCS(=O)(=O)Nc1cc(C(=O)NCCc2ccncc2)c2c(c1)nc(-c1ccccc1)n2C` is lower in Z score: 2.81 for the first, 0.06 for the second.

Compared with `CN(C)C(=O)N[C@H]1CCCN(C(=O)c2ccc3c(c2O)CCCC3)C1`, `CCC(=O)Nc1cc(NC(=O)N2CCCO[C@@H](C)C2)ccc1OC` is higher in Z score: -0.85 for the first, 0.45 for the second.

First: COc1ccc(C)cc1NC(=O)Cn1nc(Nc2ccc(F)cc2)c(S(=O)(=O)c2ccccc2)c1N
Second: COc1ccc(-c2nn(-c3ccccc3C)cc2CN(C)Cc2cccnc2)cc1F
The Z score of the first is higher: 2.46 for the first, -0.42 for the second.

First: C[C@]1(O)CCN(Cc2ccccc2OC(F)(F)F)C[C@@H]1O
Second: CCOC(=O)c1cccnc1N1CC[S@+]([O-])C(C)(C)C1
The Z score of the first is lower: -0.5 for the first, 0.46 for the second.

Compared with `CCOc1cccc(-c2noc(Cn3c(=O)n(Cc4ccccc4)c(=O)c4sccc43)n2)c1`, `O=C1CC[C@@H](CN(Cc2cccnc2)Cc2ccnn2-c2ccccc2)N1` is lower in Z score: 1.89 for the first, -0.9 for the second.

Going from `Cc1ccc(C(=O)NCc2ccc(N3CCO[C@@H](C)C3)nc2)c(=O)[nH]1` to `O=C(NCc1ccc(N2CCOCC2)cc1)c1nnn2c1c(=O)[nH]c1ccccc12`, the Z score falls from 1.96 to 1.25.

Compared with `CCN(CCC#N)C(=O)CCc1cc(F)ccc1Br`, `CC(C)[C@@H](CO)NS(=O)(=O)c1cc(Br)ccc1F` is lower in Z score: 0.48 for the first, -0.79 for the second.

Compared with `O=C(CC1CCOCC1)NCc1ccc(F)cc1`, `CN(CC1CCOC1)C(=O)NC(c1ccccc1F)C1CCCC1` (stereo unspecified) is higher in Z score: -0.6 for the first, 1.53 for the second.

Compared with `Cc1cccc(NC(=O)[C@H]2CC(=O)N(C(C)C)C2)n1`, `CCCCNC(=O)C1CCN(c2nc3ccccc3[nH]2)CC1` is lower in Z score: 0.29 for the first, 0.16 for the second.

Going from `CC(C)Cc1nc(C(=O)Nc2cccc(F)c2)n(-c2ccccn2)n1` to `CC(C)[C@@H]1CN(CCCn2cccn2)CCCN1Cc1ccc(F)cc1`, the Z score falls from 0.79 to -0.19.

Compared with `CCc1ccc2nc(-c3cn(CC)c(=O)[nH]c3=O)[nH]c(=O)c2c1`, `O=C1C[C@H](c2ccc(F)c(F)c2F)c2cnn(Cc3cccs3)c2N1` is higher in Z score: -2.81 for the first, -1.09 for the second.

Going from `COc1ccccc1-c1n[nH]c(C2CC2)c1NC(=O)C1CCCC1` to `COc1cccc(N2CCN(C3=NC(=O)[C@@H](C#N)C4(CCCCC4)N3)CC2)c1`, the Z score rises from -0.16 to 0.23.

Going from `CCC(C)C(C)(O)CNC(=O)Cc1ccc(Cl)s1` (stereo unspecified) to `CCOC(=O)N1CCN(c2cc([C@H]3CCOC3)nc(COC)n2)CC1`, the Z score falls from 2.08 to -0.58.

First: CC(C)c1nnc(N2CCC[C@H](C(F)(F)F)C2)s1
Second: COc1ccc(N(Cc2ccco2)Cc2nnc(C3CC3)o2)cc1F
The Z score of the first is lower: -0.94 for the first, 0.26 for the second.

For `c1cc2cc(-c3nc(CCCN4CCCC4)no3)ccc2[nH]1`, the Z score was 0.03.
